Measured values reported in PubChem BioAssay AID360 (National Center for Advancing Translational Sciences (NCATS), 2006).
The whole screen tested about 48,000 compounds, of which about 550 (1.1%) were called active. About 4% were inconclusive and are not listed. No stated cut-off is given here; in the data, active means potency below about 15 µM; inconclusive means mostly about 16 µM to 33 µM; inactive means weaker than that. This is one part of the list.

What follows are molecules tested against Lysosomal acid glucosylceramidase (Homo sapiens) (UniProt P04062) (assay: Glucocerebrosidase). Conditions: purified enzyme, resorufin glucoside fluorescence (screen aimed at inhibitors), 20 min; series mostly up to 77 µM.
Chain of UniProt P04062 (P04062 whole entry, looked up): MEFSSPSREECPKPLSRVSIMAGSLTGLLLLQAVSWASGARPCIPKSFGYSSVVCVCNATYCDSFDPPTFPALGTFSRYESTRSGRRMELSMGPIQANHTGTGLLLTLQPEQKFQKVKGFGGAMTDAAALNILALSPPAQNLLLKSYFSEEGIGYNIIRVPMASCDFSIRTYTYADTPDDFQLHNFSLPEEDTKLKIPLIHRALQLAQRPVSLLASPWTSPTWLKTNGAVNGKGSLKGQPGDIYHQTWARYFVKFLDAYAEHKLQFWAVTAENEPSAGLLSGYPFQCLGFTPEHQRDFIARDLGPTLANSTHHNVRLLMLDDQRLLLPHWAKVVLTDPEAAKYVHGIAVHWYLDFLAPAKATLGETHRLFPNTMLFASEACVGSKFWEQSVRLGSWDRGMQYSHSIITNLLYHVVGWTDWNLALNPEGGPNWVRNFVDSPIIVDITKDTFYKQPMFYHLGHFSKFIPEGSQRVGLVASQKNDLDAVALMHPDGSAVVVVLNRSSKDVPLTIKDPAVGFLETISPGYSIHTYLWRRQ
How it was run: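 Compounds titrated against 0.2 nM normal enzyme, 30 uM resorufin beta-D-glucopyranoside substrate, citrate/phosphate buffer with taurocholate and tween-20, pH 5.9. Reaction ran 20 min at room temperature; fluorescence (Ex 548/Em 600) gave AC50.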
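Further: the screen sought inhibitors.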
Potency means the concentration at half of the fitted maximal effect.

Potency, inactive:
CCOc1cc2[nH]c(=S)n(CCCN3CCOCC3)c(=O)c2cc1OCC > 76.9 µM
CN=CC1=C(O)c2ccccc2C1=O > 76.9 µM
COc1ccccc1NC(=O)Cc1nn(C)c(=O)c2ccccc12 > 76.9 µM
CC(=O)c1cc(-c2ccccc2)n(CCC(=O)NCc2cccs2)c1C > 76.9 µM
CC(C)c1nnc(NC(=O)CCS(=O)(=O)c2nc(-c3cccs3)cc(C(F)(F)F)n2)s1 > 76.9 µM
CSCCC(NC(=O)c1ccc(C)o1)C(=O)O (centres undefined) > 76.9 µM
CC1=C(C(=O)N2CCOCC2)C(c2ccsc2)C2=C(CCCC2=O)N1 (centres undefined) > 76.9 µM
CN(C)S(=O)(=O)N1CCC(c2ccc(F)cc2)C(COc2ccc3c(c2)OCO3)C1 (centres undefined) > 76.9 µM
COc1ccc(OCC(=O)Nc2ccccc2OC(F)F)cc1 > 76.9 µM
COCCOC(=O)/C=C1/NC(=O)CS1 > 76.9 µM
CC1(C)Cc2ccccc2-c2nnc(-c3ccccn3)n21 > 76.9 µM
O=C(c1ccco1)N1CCN(c2ncnc3c2[nH]c2ccc(Br)cc23)CC1 > 76.9 µM
CCOc1ccccc1NC1=NCC(=O)N1Cc1ccc(F)cc1 > 76.9 µM
CCOC(=O)C(NC(C)=O)C(OC(C)=O)c1cccc(N(CCO)CCO)c1 (centres undefined) > 76.9 µM
CCOC(=O)c1sc(C)c2c(=O)n(CCCN3CCOCC3)cnc12 > 76.9 µM
CCOC(=O)c1c(C)[nH]c(C)c1C(=O)CSc1nc(N)cc(N)n1 > 76.9 µM
CCOc1ccc(NC(=O)C(C)Sc2nnnn2C)cc1 (centres undefined) > 76.9 µM
CSCC[C@H](NC(=O)OC(C)(C)C)c1nnc(SCC(=O)N(C)C)o1 > 76.9 µM
Cc1ccc(-c2cc(C(=O)O)n[nH]2)o1 > 76.9 µM
Cn1c(=O)[nH]c(=O)c2c1nc(CN1CCN(c3ccc(F)cc3)CC1)n2CCCc1ccccc1 > 76.9 µM
Cc1cc(NC(=O)c2cc(S(=O)(=O)N3CCCCC3)ccc2C)n(-c2ccccn2)n1 > 76.9 µM
CS(=O)(=O)N(CC(=O)Nc1ccc2c(c1)OCO2)Cc1ccccc1 > 76.9 µM
CCOC(=O)Cc1csc(NC(=O)c2c(O)c3ccccc3n(C)c2=O)n1 > 76.9 µM
COCCn1c(C)cc(C(=O)CSc2nnc(C)s2)c1C > 76.9 µM
COc1cc(NS(=O)(=O)c2ccc(NC(=O)COc3ccccc3Cl)cc2)nc(OC)n1 > 76.9 µM
CCCN(CC(=O)c1cc(C)n(C)c1C)S(=O)(=O)c1cccc(C(F)(F)F)c1 > 76.9 µM
Cc1ccc(Nc2nc(N)nc(CN3CCN(C(=O)c4ccco4)CC3)n2)cc1Cl > 76.9 µM
CCN(CC)c1ccc(NC(=O)CSc2nc3ccccc3c(=O)[nH]2)cc1 > 76.9 µM
CCC1c2ccc(C)n2CCN1C(=O)Nc1ccccc1OC (centres undefined) > 76.9 µM
CCCCCCn1c(N2CCN(c3ccccc3)CC2)nc2c1c(=O)[nH]c(=O)n2C > 76.9 µM
Cc1ccccc1NC(=O)Cn1nnc(-c2ccc(N3CCOCC3)cc2)n1 > 76.9 µM
COc1cccc(C2C(C(=O)c3cccs3)=C(O)C(=O)N2CCN(C)C)c1OC (centres undefined) > 76.9 µM
COc1cc(C2C3C(C)N(C)C(=O)N(C)C3N(C)C(=O)N2C)ccc1O (centres undefined) > 76.9 µM
COc1ccccc1CN(C(=O)c1ccco1)C(C(=O)NC1CCCC1)c1ccncc1 (centres undefined) > 76.9 µM
O=C1Nc2ccc(Br)cc2C1(O)Cc1ccncc1 (centres undefined) > 76.9 µM
Cc1cc(C(F)(F)F)nn1CC(=O)N1CCCCC1C (centres undefined) > 76.9 µM
Cc1ccccc1N1C(=O)N(c2cccc(C(F)(F)F)c2)C2CS(=O)(=O)CC21 (centres undefined) > 76.9 µM
O=C(NCc1ccco1)C(c1cccnc1)N(C(=O)Cn1nnc2ccccc21)c1ccccc1 (centres undefined) > 76.9 µM
COCC(=O)N(Cc1cc2ccc(C)cc2[nH]c1=O)c1ccc(OC)cc1 > 76.9 µM
CCOC(=O)c1cc(-c2ccccc2)n(CC(=O)O)c1C > 76.9 µM
O=C(NC1CCCC1)c1ccc(CS(=O)(=O)c2cccc(C(F)(F)F)c2)o1 > 76.9 µM
Cn1nc(-c2ccccc2F)c2cc(C(=O)N3CCN(C(=O)c4ccco4)CC3)sc21 > 76.9 µM
COc1cccc(-c2nn(C)c3sc(C(=O)NCc4ccc(C)o4)cc23)c1 > 76.9 µM
O=C(Nn1cnnc1)c1cc2c(s1)CCCC2 > 76.9 µM
COc1cc(C2=NOC(C(=O)NCc3ccc(F)cc3)C2)cc(OC)c1OC (centres undefined) > 76.9 µM
COc1ccc(S(=O)(=O)N2CCCC2C(=O)NCc2cccs2)cc1 (centres undefined) > 76.9 µM
O=C1CNC(=O)/C1=C\N1CCCCC1
CCOC(=O)N1CCC(Nc2ncnc3c2cnn3-c2ccccc2)CC1
COc1ccc(NC(=O)NCc2cccnc2)cc1OC > 76.9 µM
Cc1nn(CC(=O)Nc2ccc3c(c2)nc(CN2CCCCC2)n3C)c(=O)c2ccccc12 > 76.9 µM
O=C(NCc1ccccc1Cl)c1cnn2cccnc12 > 76.9 µM
c1ccc(-c2noc(CN3CCN(C(c4ccccc4)c4ccccc4)CC3)n2)cc1 > 76.9 µM
CC1=C(C(=O)Nc2ccccc2)C(c2ccco2)n2ncnc2N1 (centres undefined) > 76.9 µM
CCN1CCN(CC(O)COc2cccc(OC)c2)CC1 (centres undefined) > 76.9 µM
Cc1ccc(OCC(=O)Nc2ccc(-c3nnc(-c4ccco4)o3)cc2)cc1 > 76.9 µM
C=CCNC(=O)c1ccc2c(c1)nnn2C > 76.9 µM
CCOc1ccc(-n2cnnn2)cc1S(=O)(=O)Nc1c(C)cccc1C > 76.9 µM
O=C(CSc1nnc(CNC(=O)c2ccco2)o1)c1ccc(Cl)cc1
COC(=O)CSc1nnc(SCc2ccc(OC)cc2)s1 > 76.9 µM
Cc1ccc(-c2nnn(CC(=O)N(CC(=O)NCC3CCCO3)c3ccc(F)c(Cl)c3)n2)o1 (centres undefined) > 76.9 µM
Cc1[nH]c(=O)[nH]c(=O)c1CSc1nnc([C@@H](NC(=O)OC(C)(C)C)C(C)C)o1 > 76.9 µM
COCCn1c(SCC(=O)OC(C)C)nnc1-c1ccccc1 > 76.9 µM
CCn1c2ccccc2c2nnc(SCC(=O)Nc3cc(C)on3)nc21 > 76.9 µM
CCc1nnc(NC(=O)CSc2nnc(-c3ccccc3NC(=O)c3ccccc3)o2)s1 > 76.9 µM
CCn1nc(NC(=O)c2cccnc2)c2cc3cccc(C)c3nc21 > 76.9 µM
NC(=O)C1CC(=O)N(Cc2ccc3c(c2)OCO3)C(=Nc2ccccc2)S1 (centres undefined) > 76.9 µM
O=S(=O)(c1ccccc1)c1nc(-c2ccco2)oc1N1CCOCC1 > 76.9 µM
O=C(CSc1nnc(-c2ccco2)n1Cc1ccccc1)c1ccccc1 > 76.9 µM
O=C(CC(C(=O)N1CCc2ccccc21)n1ccnc1)NCC1CCCO1 (centres undefined) > 76.9 µM
Clc1ccccc1-c1nnc2sc(-c3cccs3)nn12 > 76.9 µM
O=C(CCSc1nnc(-c2ccncc2)o1)Nc1ccc(Cl)cc1 > 76.9 µM
COc1ccc(C(CNC(=O)COc2ccccc2OC)N(C)C)cc1OC (centres undefined) > 76.9 µM
CC(C)N1C(=O)C2C(C(=O)NC3CCCCC3)C3C=CC2(O3)C1C(=O)NC1CCCCC1 (centres undefined) > 76.9 µM
CCn1cc(C(=O)NCc2ccco2)c(=O)c2cc(S(=O)(=O)N3CCCCCC3)ccc21 > 76.9 µM
O=C(O)CCC(=O)c1ccc2c(c1)OCCCO2 > 76.9 µM
Cn1c(=O)c2c(nc(OC/C=C/c3ccccc3)n2C)n(C)c1=O > 76.9 µM
CCN(CCCNC(=O)C1CCN(S(=O)(=O)N2CCC3(CC2)OCCO3)CC1)c1ccccc1 > 76.9 µM
COc1ccc(C(=O)N(CCCO)Cc2cc3c(C)ccc(C)c3[nH]c2=O)cc1OC > 76.9 µM
Cn1c(=O)c2c(nc(-n3ccnc3)n2C)n(C)c1=O > 76.9 µM
CC(C)C(c1nnnn1C1CCCCC1)N1CCN(c2ncccn2)CC1 (centres undefined) > 76.9 µM
CC(=O)Oc1ccc(C(=O)O)cc1OC(C)=O > 76.9 µM
Cc1sc2nc3n(c(=O)c2c1C)Cc1ccccc1-3 > 76.9 µM
Cc1ccc(C)c(NC(=O)CCN2CCOCC2)c1 > 76.9 µM
O=C(CSc1nc2c(c(=O)[nH]1)CCC2)Nc1cccc(Cl)c1
Cn1c(COc2ccccc2)nnc1SCC(=O)Nc1ccc(N2CCOCC2)c(Cl)c1 > 76.9 µM
Cc1ccccc1-c1ccc(Nc2ccc(C(=O)N3CCOCC3)cc2)nn1 > 76.9 µM
O=C(O)C1CSC2(c3ccc4c(c3)OCCO4)CCC(=O)N12 (centres undefined) > 76.9 µM
COc1ccc(OC)c(S(=O)(=O)N2CCc3ccccc32)c1 > 76.9 µM
Cc1cc(C(=O)CN2C(=O)c3ccccc3S2(=O)=O)c(C)n1-c1ccccc1 > 76.9 µM
